We go through 1 compound from PubChem BioAssay AID256 (DTP/NCI, 2004).

“And” between values parts separate entries of the source, which are not always exact repeats. Identical values can stand only once. Inconclusive results and toxic doses are left out.

The test relates to CD2F1 mice, L1210 leukemia ip, survival T/C. The experiment in a line: NCI In Vivo Anticancer Drug Screen. Data for tumor model L1210 Leukemia (intraperitoneal) in CD2F1 (CDF1) mice. As to conditions: endpoint: median survival time, schedule: Q01DX009 (ip), vehicle: saline, higher = longer survival. A digest of the protocol:
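Each value reflects a quotient of treated over vehicle control outcomes in mice with a transplanted tumor.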

Regarding `COc1cc2c(c(OC)c1OC)-c1ccc(OC)c(=O)cc1[C@@H](N)CC2`, the T/C by setting is: (dose: 1.5 mg/kg/injection) 116 % of control; (dose: 3.0 mg/kg/injection) 121 % of control; (dose: 6.0 mg/kg/injection) 154 % of control and 160 % of control; (dose: 12.0 mg/kg/injection) 172 % of control and 181 % of control; (dose: 24.0 mg/kg/injection) 111 % of control.
